# From the supplement of paper PMC8728848
# Some of the results follow.
# Experiments:
# Assay in all cases: glycan array binding signal (z-score within array); higher = stronger binding
# Conditions in all cases: glycan notation: IUPAC condensed, linker removed
# Gal(a1-3)Gal(b1-4)GlcNAc = target: Gal(a1-3)Gal(b1-4)GlcNAc
# In short: (§1)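 Arrays were curated from the Consortium for Functional Glycomics database, 3228 in total, and kept only where the protein sequence was available. Binding is expressed as a within-array Z-score. This score was averaged across arrays of the same protein sequence at different concentrations or buffers and across linkers, and negative values can be read as non-binding.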
# [1] = target: Gal(a1-3)Gal(b1-4)GlcNAc(b1-2)Man
# In short: as §1
# [2] = target: Gal(a1-3)Gal(b1-4)GlcNAc(b1-2)Man(a1-3)[Gal(a1-3)Gal(b1-4)GlcNAc(b1-2)Man(a1-6)]Man(b1-4)GlcNAc(b1-4)GlcNAc
# In short: as §1
# [3] = target: Gal(a1-3)Gal(b1-4)GlcNAc(b1-3)GalNAc
# In short: as §1
# [4] = target: Gal(a1-3)Gal(b1-4)GlcNAc(b1-6)GalNAc
# In short: as §1
# [5] = target: Gal(a1-3)Gal(b1-4)[Fuc(a1-3)]GlcNAc
# In short: as §1
# [6] = target: Gal(a1-3)Gal(b1-4)[Fuc(a1-3)]GlcNAc(b1-2)Man(a1-3)[Gal(a1-3)Gal(b1-4)[Fuc(a1-3)]GlcNAc(b1-2)Man(a1-6)]Man(b1-4)GlcNAc(b1-4)GlcNAc
# In short: as §1
# Gal(a1-3)GalNAc = target: Gal(a1-3)GalNAc
# In short: as §1
# [7] = target: Gal(a1-3)[Gal(a1-4)]Gal(b1-4)GlcNAc
# In short: as §1
# [8] = target: Gal(a1-4)Gal(b1-3)GlcNAc(b1-2)Man(a1-3)[Gal(a1-4)Gal(b1-3)GlcNAc(b1-2)Man(a1-6)]Man(b1-4)GlcNAc(b1-4)GlcNAc
# In short: as §1
# Gal(a1-4)Gal(b1-4)Glc = target: Gal(a1-4)Gal(b1-4)Glc
# In short: as §1
# Gal(a1-4)Gal(b1-4)GlcNAc = target: Gal(a1-4)Gal(b1-4)GlcNAc
# In short: as §1
# [9] = target: Gal(a1-4)Gal(b1-4)GlcNAc(b1-2)Man(a1-3)[Gal(a1-4)Gal(b1-4)GlcNAc(b1-2)Man(a1-6)]Man(b1-4)GlcNAc(b1-4)GlcNAc
# In short: as §1
# [10] = target: Gal(a1-4)Gal(b1-4)GlcNAc(b1-3)Gal(b1-4)Glc
# In short: as §1
# Gal(a1-4)GlcNAc = target: Gal(a1-4)GlcNAc
# In short: as §1
# Gal(a1-6)Glc = target: Gal(a1-6)Glc
# In short: as §1
# Gal(b1-2)Gal = target: Gal(b1-2)Gal
# In short: as §1
# Gal(b1-3)Gal = target: Gal(b1-3)Gal
# In short: as §1
# Gal(b1-3)Gal(b1-4)GlcNAc = target: Gal(b1-3)Gal(b1-4)GlcNAc
# In short: as §1
# Gal(b1-3)GalNAc = target: Gal(b1-3)GalNAc
# In short: as §1
# [11] = target: Gal(b1-3)GalNAc(a1-3)[Fuc(a1-2)]Gal(b1-4)Glc
# In short: as §1
# [12] = target: Gal(b1-3)GalNAc(a1-3)[Fuc(a1-2)]Gal(b1-4)GlcNAc
# In short: as §1
# Gal(b1-3)GalNAc(b1-3)Gal = target: Gal(b1-3)GalNAc(b1-3)Gal
# In short: as §1
# [13] = target: Gal(b1-3)GalNAc(b1-3)Gal(a1-4)Gal(b1-4)Glc
# In short: as §1
# [14] = target: Gal(b1-3)GalNAc(b1-4)Gal(b1-4)Glc
# In short: as §1
# [15] = target: Gal(b1-3)GalNAc(b1-4)[Neu5Ac(a2-3)]Gal(b1-4)Glc
# In short: as §1
# Gal(b1-3)GlcNAc = target: Gal(b1-3)GlcNAc
# In short: as §1
# [16] = target: Gal(b1-3)GlcNAc(a1-3)Gal(b1-4)GlcNAc
# In short: as §1
# [17] = target: Gal(b1-3)GlcNAc(a1-6)Gal(b1-4)GlcNAc
# In short: as §1
# Gal(b1-3)GlcNAc(b1-2)Man = target: Gal(b1-3)GlcNAc(b1-2)Man
# In short: as §1
# [18] = target: Gal(b1-3)GlcNAc(b1-2)Man(a1-3)[Gal(b1-3)GlcNAc(b1-2)Man(a1-6)]Man(b1-4)GlcNAc(b1-4)GlcNAc
# In short: as §1
# [19] = target: Gal(b1-3)GlcNAc(b1-2)Man(a1-3)[Gal(b1-3)GlcNAc(b1-2)Man(a1-6)]Man(b1-4)GlcNAc(b1-4)[Fuc(a1-6)]GlcNAc
# In short: as §1
# [20] = target: Gal(b1-3)GlcNAc(b1-2)Man(a1-3)[GlcNAc(b1-4)][Gal(b1-3)GlcNAc(b1-2)Man(a1-6)]Man(b1-4)GlcNAc(b1-4)GlcNAc
# In short: as §1
# [21] = target: Gal(b1-3)GlcNAc(b1-2)[Gal(b1-3)GlcNAc(b1-6)]Man(a1-6)[Gal(b1-3)GlcNAc(b1-2)Man(a1-3)]Man(b1-4)GlcNAc(b1-4)GlcNAc
# In short: as §1
# [22] = target: Gal(b1-3)GlcNAc(b1-3)Gal(b1-3)GlcNAc
# In short: as §1
# [23] = target: Gal(b1-3)GlcNAc(b1-3)Gal(b1-4)Glc
# In short: as §1
# [24] = target: Gal(b1-3)GlcNAc(b1-3)Gal(b1-4)GlcNAc
# In short: as §1
binder,measurement,setting,value
"Sebin2 (Coprinopsis cinerea), A8PE78 (protein) MTTPFYAYCHNVQDDNTWRLGLVFANRSTADEWWRAISEATSSIPITKSITRVTPQYYTHDIRVWNMYNFFVDGNIKSISDKFRGRLFITLEYDRSGRGVSVFPPLHIVDHVSGNWYYIRSKTAPHLFWFYDETRNAIYASKEKRTRFKVSIRNPSPQTPKDAIMINSDDVVIHIKESLYVGVDSYLGHIIPTRAYRTFKFGELEGGAIAGIEVAENAEERCSSTFDGASLYFVGPDSSSPGEPWELV",glycan array binding signal (z-score),Gal(a1-3)Gal(b1-4)GlcNAc,-0.418
same,glycan array binding signal (z-score),[1],-0.374
same,glycan array binding signal (z-score),[2],-0.078
same,glycan array binding signal (z-score),[3],0.034
same,glycan array binding signal (z-score),[4],-0.161
same,glycan array binding signal (z-score),[5],-0.524
same,glycan array binding signal (z-score),[6],-0.059
same,glycan array binding signal (z-score),Gal(a1-3)GalNAc,-0.537
same,glycan array binding signal (z-score),[7],0.228
same,glycan array binding signal (z-score),[8],-0.075
same,glycan array binding signal (z-score),Gal(a1-4)Gal(b1-4)Glc,0.235
same,glycan array binding signal (z-score),Gal(a1-4)Gal(b1-4)GlcNAc,-0.24
same,glycan array binding signal (z-score),[9],0.333
same,glycan array binding signal (z-score),[10],-0.197
same,glycan array binding signal (z-score),Gal(a1-4)GlcNAc,-0.432
same,glycan array binding signal (z-score),Gal(a1-6)Glc,-0.281
same,glycan array binding signal (z-score),Gal(b1-2)Gal,-0.151
same,glycan array binding signal (z-score),Gal(b1-3)Gal,-0.168
same,glycan array binding signal (z-score),Gal(b1-3)Gal(b1-4)GlcNAc,0.27
same,glycan array binding signal (z-score),Gal(b1-3)GalNAc,-0.281
same,glycan array binding signal (z-score),[11],-0.394
same,glycan array binding signal (z-score),[12],-0.521
same,glycan array binding signal (z-score),Gal(b1-3)GalNAc(b1-3)Gal,-0.148
same,glycan array binding signal (z-score),[13],0.232
same,glycan array binding signal (z-score),[14],-0.071
same,glycan array binding signal (z-score),[15],-0.265
same,glycan array binding signal (z-score),Gal(b1-3)GlcNAc,-0.383
same,glycan array binding signal (z-score),[16],0.038
same,glycan array binding signal (z-score),[17],0.015
same,glycan array binding signal (z-score),Gal(b1-3)GlcNAc(b1-2)Man,-0.233
same,glycan array binding signal (z-score),[18],0.372
same,glycan array binding signal (z-score),[19],-0.246
same,glycan array binding signal (z-score),[20],-0.222
same,glycan array binding signal (z-score),[21],1.02
same,glycan array binding signal (z-score),[22],-0.397
same,glycan array binding signal (z-score),[23],-0.226
same,glycan array binding signal (z-score),[24],-0.315
